# The supplement of paper PMC11417369
# The other results are listed elsewhere or left out.
# Tested on: PfAP2-HC AP2 domain (GST-tagged)
# Assay: gcPBM binding intensity (ln(normalized median fluorescence intensity)); higher = stronger DNA binding
# In short: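 DNA-binding domains from P. falciparum, fused to GST and produced in E. coli, were put on an Agilent 4 × 180k double-stranded probe array for 1 h in 1× PBS holding 1% milk, 0.2 mg/ml BSA, 0.5% salmon testes DNA and 0.03% Triton X-100. Probes were primer-extended, 36 bp long and drawn from intergenic genomic regions, with negative controls included. After Alexa488 anti-GST antibody detection and a 488 nm scan, binding intensity was set as the highest Masliner-normalised natural-log median intensity across replicate spots of either probe orientation.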
row,Sequence,gcPBM binding intensity (ln)
1,CATACATACAGACACACACACATATATATATATATA [CACACA_site2920],10.7
2,AACATAAAAATGAACATACACACATATATATATATA [CACACA_site2497],10.7
3,ATAAAAATACAGTTAACACACATGTGGATATATATG [CACACA_site3771],10.4
4,TATATAACATAATATACACACATTATGTGCGTAATT [CACACA_site4073],9.75
5,GTATATCATTTTGGGGTGCTTAAAAATAATGAATAC,9.56
6,TTTTTTTTTTTTTATTGTACAAAGGTATAAAATAAT [XGTACX_site2396],9.34
7,TATTATTCTGTATTTGCATGTGATCATATATATGTA [TGCATGCA_site1053],9.72
8,CATATGTATATGACTACACACAAGGGTGTACAGATA [CACACA_site4776],9.8
9,TTTTTAATTTATTAAGAAGTAAAGAATAACTCTTTT [TGCATGCA_negctrl_site101],9.19
10,AAACATTAAAATAACTCACACATTTTTCTAGTCTTC [CACACA_site4612],9.7
11,ATATATTTAATATTCACACATAATTATTTTTACTCT [CACACA_site5438],9.82
12,ATATAATGATAATATTGTACATGTTATATTTCAATA [XGTACX_site8645],9.6
13,TATAGATAAGAATATGCACACATTTTATTTTTTTTT [CACACA_site1982],9.76
14,TTGTAATATCTTGTCACACATATATATATATATATA [CACACA_site4937],9.72
15,AGTTTTCCATGTTAATGTACTTAACAATACCATAAT [XGTACX_site209],9.61
16,ATTTATTCATAGACAACAAGAAAAAAAAAAAAAATT [CACACA_negctrl_site1168],9.49
17,TATATCCATATTGTATGTACACATATAATACCAATG [XGTACX_site7230],9.7
18,GTATTATCTTTTAATAGTACATATTTTTTTGAAACA [XGTACX_site4050],9.39
19,AATATATTTTTATATTGTACAAAAGAAAAAAAATAT [XGTACX_site1689],9.72
20,CATATAATATTTGAAACTATATATAAATATAAGGTA [TGCATGCA_negctrl_site19],9.52
21,AAAACGGATTCTTTATAAATAAATAAATAAATATAA [XGTACX_negctrl_site157],9.43
22,ATATATGTATGTTAGACACACATATTATAATATGTT [CACACA_site116],9.82

row,Sequence,gcPBM binding intensity (ln)
1,AATACATACACAAATACACACACAAATACATACACA [CACACA_site8134],10.4
2,TTTTTTTTTTTTTTTACACACAAATGTATACTATAT [CACACA_site1787],9.71
3,TATTAAATATTCATATGTACATATAGTTTATAAATT [XGTACX_site7455],9.58
4,TATAAATAAATGTGTACACACATTAAAATCAAACGT [CACACA_site2340],10.3
5,TTTATCAAAAAAAAAAAAAAAAAAAAAAAAAATTGT [CACACA_negctrl_site176],9.26
6,TATATGTTTTATAAATGTACATATACTTAAATATTT [XGTACX_site4753],9.62
7,TTATGTGCTTTAAAAGTGCATTTTTTTTTTTTTTTT,9.34
8,TTTTTTGTTATGCGGGTGCATATAATAATGTGATGA,9.44
9,TTATTTGTATCCATTTCACACATTTTATATAGTATC [CACACA_site5989],9.82
10,AATACATAATAACGTTGTACAAAAATTATAATACAT [XGTACX_site6508],10
11,ACTATTAAGAATAAAGAAATATGTAATTGTATTTAA [CACACA_negctrl_site516],9.51
12,TCCTCGCGTAATACTTTTCAAATAAAAAAAATAAAA [TGCATGCA_negctrl_site403],9.01
13,ATTAAAAATTAATATAAACACACAAAAATTAATAAA [CACACA_site8019],9.84
14,TTTTTTTTTTTTTATTGTACTAGTAGATATATATAC [XGTACX_site3463],9.59
15,CCAATATATACATATATATAGTTATATATATTTCCT [TGCATGCA_negctrl_site38],9.67
16,GTGTCAAATTTTATAACACACAAAAGATTATATAAG [CACACA_site4086],9.72
17,AAACATACTTGATGCAGTACACATTATAAGCACATA [XGTACX_site3359],9.76
18,TTTTAAAAATTAAAAAAATTAAATGTAAAAAAATGA [CACACA_negctrl_site861],9.36
19,ATATATGTATATGTGTGTACATATATGTTTATTATT [XGTACX_site6043],9.9
20,GGACTTAAATAAAATGGTACAGAATTTATATATATT [XGTACX_site8214],9.49
21,TAATGGAATACATATAGTACATAATATTACATACAT [XGTACX_site5737],9.76
22,TTACACAAACAAATTATGGACACATAAGTAAAAGGA [CACACA_negctrl_site1622],9.89
